The campaign covered roughly 110,000 compounds. About 230 (0.21%) showed an effect of 50% or more. The list shows a part of the results.
molecular target: DPAP1 (Plasmodium falciparum, UniProt Q8IIJ9); assay: primary screen, percent inhibition; read by cleavage of a fluorogenic dipeptide substrate; higher = more effect of the substance; design: species or system P. falciparum D10 trophozoite lysates; single well
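Note: 30 min substrate incubation versus DMSO and 10 µM JCP410 controls.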

Sequence of DPAP1 (Q8IIJ9 whole entry, looked up): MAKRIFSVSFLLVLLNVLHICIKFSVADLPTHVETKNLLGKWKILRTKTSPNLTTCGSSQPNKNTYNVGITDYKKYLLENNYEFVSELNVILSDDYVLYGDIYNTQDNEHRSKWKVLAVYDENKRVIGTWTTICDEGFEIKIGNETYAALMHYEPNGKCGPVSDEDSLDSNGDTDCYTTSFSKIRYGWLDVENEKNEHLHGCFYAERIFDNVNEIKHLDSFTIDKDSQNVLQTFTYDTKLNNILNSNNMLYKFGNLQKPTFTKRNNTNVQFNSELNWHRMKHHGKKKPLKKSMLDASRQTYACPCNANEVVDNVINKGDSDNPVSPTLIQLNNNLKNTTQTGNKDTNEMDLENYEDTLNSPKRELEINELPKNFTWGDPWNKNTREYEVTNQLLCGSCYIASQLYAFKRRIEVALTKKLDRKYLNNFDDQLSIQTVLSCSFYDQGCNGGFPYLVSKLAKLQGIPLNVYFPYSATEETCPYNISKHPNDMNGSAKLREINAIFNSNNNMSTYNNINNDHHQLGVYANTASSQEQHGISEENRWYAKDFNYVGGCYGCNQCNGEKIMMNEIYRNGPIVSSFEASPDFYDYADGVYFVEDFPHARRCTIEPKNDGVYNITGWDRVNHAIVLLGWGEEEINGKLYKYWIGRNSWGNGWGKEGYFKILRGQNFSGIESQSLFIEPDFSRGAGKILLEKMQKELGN

SMILES	% Inhibition @ 10 uM [%]
CCOC(=O)c1s/c(=N\C(=O)c2ccc(S(=O)(=O)N3CCOCC3)cc2)n(C)c1C	3.06
CCOc1ccccc1N1CCN(Cc2nnc(S)n2CC)CC1	1.88
O=C(NCCC1=CCCCC1)c1csc2ccccc12	-3.83
Cn1c(=O)[nH]c(=O)c2c1nc(N1CCOCC1)n2CCSc1nc2ccccc2[nH]1	0.275
CCOc1ccccc1NC(=O)C(C)Oc1ccccc1C (stereo not drawn)	4.11
Cc1cccc(Cc2c(C)nc3c(C(=O)NCCc4ccccc4)cnn3c2C)c1	-16.3
COc1ccc(CNc2nc(-c3cccnc3)nn2C(=O)c2ccc(C(C)(C)C)cc2)cc1	-2.92
COc1ccccc1Nc1nc(-c2ccc3ccccc3c2)cs1	4.38
CCc1ccc(CNC(=O)c2cc3ccc4cccnc4c3[nH]2)cc1	5.23
O=C(CN1C(=O)c2cccc3cccc1c23)NCc1ccco1	-6.02
O=C(NCC1CCCO1)c1ccc(CS(=O)c2ccc(Br)cc2)o1 (stereo not drawn)	-3.32
COc1cc(C2NC(C(=O)O)CS2)ccc1OCC(N)=O (stereo not drawn)	-2.19
CN(C)CC(=O)N1c2ccccc2CCc2ccc(NC(N)=O)cc21	0.937
CC(C)c1ccc(NC(=O)Nc2cccc(Cl)c2)cc1	-0.261
Cc1cc(C(F)(F)F)c(C#N)c(SCc2ccc(Cl)nc2)n1	3.19
COc1cccc(C2c3c(oc4ccc(F)cc4c3=O)C(=O)N2c2nc(C)c(C)s2)c1 (stereo not drawn)	-1.33
CN(C)CCOC(=O)NC12CC3CC(CC(C3)C1)C2	2.58
Cc1ccc(C(=O)Nc2c(C(=O)Nc3cccnc3)cnn2-c2ccccc2)cc1	3.86
COc1ccc(CN2CCN(Cc3ccc(Cl)cc3)CC2)cc1OC	1.92
O=C1CC(c2ccccc2F)c2ccc3ccccc3c2N1 (stereo not drawn)	-0.436
Cc1cc(CN(C)Cc2ccccc2)cs1	-1.57

SMILES	% Inhibition @ 10 uM [%]
O=c1cc(NCc2ccc(Cl)cc2)c2ccccc2o1	-3.72
Cc1ccc(-c2cc(C(=O)NCCN3CCOCC3)c3cc(Br)ccc3n2)cc1	4.3
CCN(CC)C1=CC(=O)OC12CCCCC2	1.44
Cc1ccc2c(CNCc3ccco3)c(C(=O)O)n(Cc3ccc(F)cc3)c2c1	1.8
Cc1cccc(Cc2c(C)nc3c(C(=O)NCc4ccco4)cnn3c2C)c1	-4.06
Cc1ccc(C2=NS(=O)(=O)N(C)C(C(=O)Nc3cnn(Cc4ccccc4C)c3)=C2)cc1	3.92
OC1CCCN(Cc2ccc(F)cc2)C1 (stereo not drawn)	-2.7
O=C(NC1CCS(=O)(=O)C1)/C(NC(=O)c1ccccc1)=C(/Sc1ccccn1)c1ccccc1 (stereo not drawn)	-5.63
CCN(CC)c1ccc(Nc2nc(-c3ccccc3)cs2)cc1	-2.48
COc1ccc(CNC(=O)c2oc3cc4sc(N(C)C)nc4cc3c2C)cc1	6.41
O=C(C1=C(O)C(=O)N(CC2CCCO2)C1c1cccs1)c1ccc2c(c1)OCCO2 (stereo not drawn)	-4.14
COc1cc2oc(=O)cc(C)c2cc1OCC(O)CN1CCOCC1 (stereo not drawn)	5.53
C=C1c2ccc(OC)cc2NC(=O)N1c1ccccc1	3.9
CC1CCN(S(=O)(=O)N2CCCC(C(=O)NCc3ccc4c(c3)OCO4)C2)CC1 (stereo not drawn)	-3.12
Cn1cc(S(=O)(=O)N2CCOCC2)cc1C(=O)NCCCc1ccccc1	-5.01
COc1cc(C(=O)N(Cc2ccc(C(C)(C)C)cc2)Cc2ccco2)cc(OC)c1OC	3.88
CCCC[C@@H](/C=C/S(=O)(=O)c1ccccc1)NC(=O)[C@H](Cc1ccccc1)NC(=O)N1CCC(N2CCOCC2)CC1	0.173
Nc1ccc(C(=O)/C=C/c2ccco2)cc1	-1.66
O=C(NCc1ccc(F)cc1)c1cc2n(n1)C(C(F)(F)F)CC(c1ccccc1)N2 (stereo not drawn)	1.03
CCOC(=O)c1cnc2nc(-c3ccncc3)nn2c1N	0.895
Cc1ccc2nc3c(O)n(CC(=O)Nc4cccnc4)ncc-3c2c1	-2.52

SMILES	% Inhibition @ 10 uM [%]
Cc1cccc(NC(=O)CN(CCc2ccccc2)S(C)(=O)=O)c1C	-4.39
CC1=C(C#N)C(c2ccc(OCc3ccccc3)cc2)C2=C(O)CCCC2=N1 (stereo not drawn)	0.736
O=C1CC(N2CCN(c3ccccc3F)CC2)C(=O)N1c1cccc(C(F)(F)F)c1 (stereo not drawn)	0.528
O=C1Nc2ccc(S(=O)(=O)N3CCCC3C(=O)O)c3cccc1c23 (stereo not drawn)	1.1
CCC(C)c1ccc(NC(=O)c2ccncc2)cc1 (stereo not drawn)	-3.24
Cc1cc(C)cc(CC(C(=O)Nc2ccccc2)C(C)C(=O)O)c1 (stereo not drawn)	0.635
CC1=C(C(=O)OCc2ccccc2)C(c2coc3ccc(Cl)cc3c2=O)C2=C(O)CCCC2=N1 (stereo not drawn)	-5.03
Cc1cc(SCC(=O)O)n2nc(C)c(-c3ccc(Cl)cc3)c2n1	-3.53
O=C1CCCC2=C1C(c1cccnc1)Nc1ccc3ncccc3c12 (stereo not drawn)	4.12
Cc1ccc(S(=O)(=O)N(CC(=O)NCc2cccnc2)c2ccccc2)cc1	-6.77
O=C(CCCOc1ccc(Br)cc1)Nc1ncc(Cc2ccc(F)cc2)s1	0.685
Cc1oc2c(c1C(=O)NCCc1ccccc1)C(=O)c1ccccc1C2=O	-5.41
Cc1cc(C)nc(Sc2ncnc3sc(C)c(C)c23)n1	4.83
CCOC(=O)N1CCC(NC(=O)CSc2cc(C)nc3c(-c4ccccc4OC)c(C)nn23)CC1	3.29
CCn1ncc(Br)c1C(=O)Nc1ccc(C(C)C)cc1	2.92
COc1cccc(-c2cc(C(=O)N3CCN(c4ncccn4)CC3)c3ccccc3n2)c1	2.76
CN1C(=O)c2ccccc2C(C(=O)Nc2cccnc2Cl)C1c1cccs1 (stereo not drawn)	-7.02
CCOC(=O)c1c(C)c(C(=O)NCc2ccccc2)c(C)n1CC	-1.66
Cc1cccc(-n2cc(-c3ccccc3)c3c(N4CC(C)OC(C)C4)ncnc32)c1 (stereo not drawn)	0.258
Cc1cc(OCC(=O)Nc2ccc(S(=O)(=O)N3CCCCCC3)cc2)ccc1Br	1.83
CC(C)C(=O)Nc1ccc(C(=O)c2ccccc2)cc1	-0.884

— paper PMC6919601, “Identification of Plasmodium dipeptidyl aminopeptidase allosteric inhibitors by high throughput screening” (PLoS ONE, 2019)
